# Results: paper PMC9911399, “Two distinct binding modes provide the RNA-binding protein RbFox with extraordinary sequence specificity”
# Where a chain is given by its changes, count along the chain named. This is one part of the list.
# T1: RBFOX1 RRM RbFoxmut (Fox-RRM*) (Homo sapiens, UniProt Q9NWB1 109-208, R118D;E147R;N151S;E152T)
# T1 sequence: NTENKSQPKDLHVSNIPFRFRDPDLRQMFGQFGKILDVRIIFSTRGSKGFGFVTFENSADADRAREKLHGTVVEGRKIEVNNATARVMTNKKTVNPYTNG
# B1: CCGCUUU (DNA:RNA)
# RNA: GGGAGACCGGAAUUCAGAUUGUCCCCGCUUUUUAAAUCCCGUCGUAGCCACCA
# DNA 1: CAATCTGAATTCCGGTCTCCC
# DNA 2: TGGTGGCTACGACGGGATT
# B2: ACGGGUC (DNA:RNA)
# RNA: B1 RNA with C25A, C28G, U29G, U31C
# DNA 1: CAATCTGAATTCCGGTCTCCC
# DNA 2: TGGTGGCTACGACGGGATT
# B3: GGAGCCC (DNA:RNA)
# RNA: GGGAGACCGGAAUUCAGAUUGUCCGGAGCCCUUAAAUCCCGUCGUAGCCACCA
# DNA 1: CAATCTGAATTCCGGTCTCCC
# DNA 2: TGGTGGCTACGACGGGATT
# B4: CCGACUC (DNA:RNA)
# RNA: B1 RNA with C28A, U29C, U31C
# DNA 1: CAATCTGAATTCCGGTCTCCC
# DNA 2: TGGTGGCTACGACGGGATT
# B5: UCACCCG (DNA:RNA)
# RNA: B3 RNA with G25U, G26C, G28C, C31G
# DNA 1: CAATCTGAATTCCGGTCTCCC
# DNA 2: TGGTGGCTACGACGGGATT
# B6: ACGCAGC (DNA:RNA)
# RNA: B1 RNA with C25A, U29A, U30G, U31C
# DNA 1: CAATCTGAATTCCGGTCTCCC
# DNA 2: TGGTGGCTACGACGGGATT
# B7: CAUGUUG (DNA:RNA)
# RNA: B1 RNA with C26A, G27U, C28G, U31G
# DNA 1: CAATCTGAATTCCGGTCTCCC
# DNA 2: TGGTGGCTACGACGGGATT
# B8: UUACAAG (DNA:RNA)
# RNA: B1 RNA with C25U, C26U, G27A, U29A, U30A, U31G
# DNA 1: CAATCTGAATTCCGGTCTCCC
# DNA 2: TGGTGGCTACGACGGGATT
# B9: CCAGGAC (DNA:RNA)
# RNA: B3 RNA with G25C, G26C, C29G, C30A
# DNA 1: CAATCTGAATTCCGGTCTCCC
# DNA 2: TGGTGGCTACGACGGGATT
# Target: T1, RBFOX1 RRM RbFoxmut (Fox-RRM*)
# Assay: EMSA; HiTS-Eq, 1 nM pool, 10 min; buffer printed only for the single-RNA assays: 10 mM Tris pH 7.5, 150 mM NaCl, 3.4 mM EDTA, 0.001% NP-40, 30 C
# Conditions: tags: His6 N-terminal (pET28a); label: 5' 32P
# Procedure, shortened: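 These values rest on relative association constants, computed from read-count changes of each RNA species versus the control reaction and normalised to the cognate motif. Reads came from free RNA recovered by 8% native PAGE after purified RbFox RRM (wild type or mutant) at increasing concentrations was equilibrated for 10 min in 50 µL with 1 nM of a 5′-radiolabelled pool with 7 randomized nucleotides and DNA-annealed flanks.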
row,Binder,binding signal
1,B1,0.0941 KA relative to UGCAUGU
2,B2,0.153 KA relative to UGCAUGU
3,B3,0.0675 KA relative to UGCAUGU
4,B4,0.0824 KA relative to UGCAUGU
5,B5,0.104 KA relative to UGCAUGU
6,B6,0.0928 KA relative to UGCAUGU
7,B7,0.15 KA relative to UGCAUGU
8,B8,0.0498 KA relative to UGCAUGU
9,B9,0.0683 KA relative to UGCAUGU
